Laboratory results from PubChem BioAssay AID686978 (National Center for Advancing Translational Sciences (NCATS), 2013).
The campaign covered roughly 420,000 compounds. About 64,000 (15%) were called active. The shares of active, inactive and inconclusive entries below differ from those in the screen. The call rests on the fitted dose curve; in most records, active means well fitted inhibition curve with a large enough effect; inconclusive means small, poorly fitted or top-dose-only effect; inactive means flat fitted curve, though single readings scatter. No potency is given beside an inconclusive call; the fits are too rough.

assay: qHTS for Inhibitors of human tyrosyl-DNA phosphodiesterase 1 (TDP1): qHTS in cells in absence of CPT; conditions: DT40 Tdp1-/- hTDP1 cells, no CPT, ATP luminescence, 48 h; activity change, negative = growth inhibition: at 46.2 µM (top of the series) unless noted; further: nearly all actives have a fitted effect of over 55% in size
Method in brief: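 A cellular qHTS used chicken DT40 cells lacking endogenous Tdp1 but carrying stably transfected human TDP1. Compounds were applied without camptothecin, and cell growth kinetics were judged by ATP-dependent luminescence after ≥48 hr.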
On the % scale 0 is the no-effect control and ±100 the full control effect; potency means the concentration at half of the fitted maximal effect; tags describe the fitted curve by direction and shape.

| Compound | Potency | activity change, negative = growth inhibition |
| --- | --- | --- |
| O=C(CN1CCN(S(=O)(=O)c2ccc(F)c(Cl)c2)CC1)N1CCc2ccccc21 | inconclusive [inhibitor, single point] |  |
| COc1ccc(N2C(=O)N(Cc3ccc(C)cc3)c3ccccc3S2(=O)=O)cc1 | inconclusive [inhibitor, single point] |  |
| COc1cccc(CC(NC(C)=O)C(=O)NC2CCN(C(=O)Nc3ccc(C)cc3)CC2)c1 (stereo unspecified) |  | inactive: -14.9% |
| CCC(C)(C(=O)Nc1ccc(OC)cc1)N(C)C(=O)Cn1nnnc1N (stereo unspecified) |  | inactive: 0.0006% |
| CCOC(=O)CS(=O)(=O)c1nc(-c2ccc(F)cc2)cc(C(F)(F)F)n1 | active: 0.82 µM |  |
| COc1ccc(CN2CCN(C(=O)CCC(=O)Nc3nnc(C4CCCCC4)s3)CC2)cc1F | inconclusive [inhibitor, partial curve] |  |
| CCOC(=O)c1ccc(NC(=O)CSC2=NN3CCCC(=O)N=C3S2)cc1 | inconclusive [inhibitor, partial curve] |  |
| C=CCN1C(=O)C(Cc2ccccc2)SC1=Nc1ccc(C(=O)O)cc1 (stereo unspecified) |  | inactive: -0.732% |
| O=C(Nc1ccc(F)cc1F)N1CCN(c2ccc(Cl)c(Cl)c2)CC1 | active: 4.61 µM |  |
| COc1cc(Nc2ncc3c(n2)CCN(Cc2cc(F)cc(F)c2)C3)cc(OC)c1 | active: 3.66 µM |  |
| O=C(COC(=O)[C@@H]1CC(O)CN1S(=O)(=O)c1ccc(Cl)cc1)NC(=O)NCc1ccccc1 (stereo partly specified) |  | inactive: 5.32% |
| Cc1ccccc1C(=O)N1CCC(C(=O)NCc2ccc(Cl)cc2)CC1 | inconclusive [inhibitor, partial curve] |  |
| COc1cc(/C=C/[N+](=O)[O-])ccc1OCc1cccc(C(=O)O)c1 | active: 16.4 µM |  |
| COc1ccc(-c2ccc(-c3cc(=O)oc4cc(OC)c(OC)c(OC)c34)cc2)cc1OC | active: 14.6 µM |  |
| COC(=O)c1cc(OC)c(OC)cc1NC(=O)CSCc1c(C)noc1C | inconclusive [inhibitor, single point] |  |
| Cc1ccc(/C=N/NC(=O)c2cc(-c3ccncc3)nc3ccccc23)o1 | active: 2.59 µM |  |
| Cc1ccccc1N1CCN(C2CCCN(C(=O)CCC3(C)CC3)C2)CC1 (stereo unspecified) | inconclusive [inhibitor, single point] |  |
| CCc1ccc(NC(=O)Cn2cnc3sc(C)c(S(=O)(=O)N4CCOCC4)c3c2=O)cc1 | inconclusive [inhibitor, single point] |  |

| Compound | Potency | activity change, negative = growth inhibition |
| --- | --- | --- |
| CCOc1ccccc1NC(=S)N(CCCN1CCOCC1)Cc1cn(C)c2ccccc12 | inconclusive [inhibitor, single point] |  |
| CS(=O)(=O)c1ccc(Cl)c(NC(=O)COC(=O)CCc2c[nH]c3ccccc23)c1 |  | inactive: -18.4% |
| COc1cccc(C2=NOC(C(=O)N3CCN(Cc4ccccc4)CC3)C2)c1OC (stereo unspecified) | inconclusive [inhibitor, partial curve, poor fit] |  |
| NC(=O)C1CCN(C(=O)c2ccc3c(=O)n(Cc4ccco4)c(SCC(=O)c4ccccc4)nc3c2)CC1 | inconclusive [inhibitor, single point] |  |
| O=C(NCc1ccc(OC(F)(F)F)cc1)c1cc(-c2ccccc2)nn1CC1CC(c2cccnc2)=NO1 (stereo unspecified) | inconclusive [inhibitor, single point] |  |
| CC(=O)N1CCCc2cc(S(=O)(=O)N3CCCC3)ccc21 |  | inactive: 5.69% |
| Cc1ccc(CCNC(=O)CN(c2ccc(C(C)C)cc2)S(=O)(=O)c2c(C)nn(C)c2C)cc1 | active: 23.1 µM |  |
| COc1ccc2ccccc2c1/C=N/NC(=O)c1ccc(C)nc1 | inconclusive [inhibitor, single point] |  |
| CC1(C(=O)NS(=O)(=O)c2ccccc2Cl)CCN1C(=O)c1cccc2ccccc12 (stereo unspecified) |  | inactive: -4.15% |
| CCN(CC)C(=O)CSc1nc2cc3c(cc2c(=O)n1CCCC(=O)NCc1ccc(OC)cc1)OCO3 | inconclusive [inhibitor, single point] |  |
| O=S(=O)(Cc1cc(Cl)nc(-c2ccccc2)n1)c1ccccc1 | inconclusive [inhibitor, single point] |  |
| CCc1ccc(CN(Cc2cn[nH]c2-c2ccc(OC)cc2)C(=O)Nc2ccc(Br)cc2)cc1 | active: 18.4 µM |  |
| Cc1ccc(-c2nc3c4ccccc4ccn3c2Cc2cccc(Cl)c2)cc1 | inconclusive [inhibitor, single point] |  |
| O=C(NCCC1=CCCCC1)c1ccc2c(c1)N(Cc1ccccc1)C(=O)c1ccccc1S2=O (stereo unspecified) | inconclusive [inhibitor, single point] |  |
| O=C(CCCN1C(=O)[C@H]2CC=CC[C@H]2C1=O)NCc1nc(-c2ccc(Cl)cc2)no1 |  | inactive: -15.7% |
| CN=C1S/C(=C\c2ccc(O)c(OC)c2)C(=O)N1C |  | inactive: -20.1% |
| COc1ccc(OCc2cc(C(=O)N(C)Cc3cc(C)no3)no2)c(Cl)c1 |  | inconclusive: -30.7% [inhibitor] |
| Nc1c(C(=O)c2ccccc2)sc2nsc(SCCN3CCCC3)c12 | inconclusive [inhibitor, single point] |  |
